Measurements reported in PubChem BioAssay AID1159614 (National Center for Advancing Translational Sciences (NCATS), 2016).
The campaign covered roughly 45,000 compounds. About 65 (0.1%) were called active. Calls follow the shape of the dose curve; as a rule, active = well fitted activation curve with a large enough effect; inconclusive = small, poorly fitted or top-dose-only effect; inactive = no such curve, though single readings can be large or run the other way. Some of the results follow.

What follows are compounds tested against Galactocerebrosidase (Homo sapiens) (UniProt P54803) (assay: A Novel Cell-Based Assay to Identify Small Molecules for B -Galactocerebrosidase). Conditions: 145M-Twi-hGALC-G270D cells (Twitcher mouse brain line with human GALC G270D), HMU-beta-Gal fluorescence, 48 h; series mostly up to 57.5 µM; activation: at the top concentration.
Sequence of UniProt P54803 (P54803 whole entry, looked up): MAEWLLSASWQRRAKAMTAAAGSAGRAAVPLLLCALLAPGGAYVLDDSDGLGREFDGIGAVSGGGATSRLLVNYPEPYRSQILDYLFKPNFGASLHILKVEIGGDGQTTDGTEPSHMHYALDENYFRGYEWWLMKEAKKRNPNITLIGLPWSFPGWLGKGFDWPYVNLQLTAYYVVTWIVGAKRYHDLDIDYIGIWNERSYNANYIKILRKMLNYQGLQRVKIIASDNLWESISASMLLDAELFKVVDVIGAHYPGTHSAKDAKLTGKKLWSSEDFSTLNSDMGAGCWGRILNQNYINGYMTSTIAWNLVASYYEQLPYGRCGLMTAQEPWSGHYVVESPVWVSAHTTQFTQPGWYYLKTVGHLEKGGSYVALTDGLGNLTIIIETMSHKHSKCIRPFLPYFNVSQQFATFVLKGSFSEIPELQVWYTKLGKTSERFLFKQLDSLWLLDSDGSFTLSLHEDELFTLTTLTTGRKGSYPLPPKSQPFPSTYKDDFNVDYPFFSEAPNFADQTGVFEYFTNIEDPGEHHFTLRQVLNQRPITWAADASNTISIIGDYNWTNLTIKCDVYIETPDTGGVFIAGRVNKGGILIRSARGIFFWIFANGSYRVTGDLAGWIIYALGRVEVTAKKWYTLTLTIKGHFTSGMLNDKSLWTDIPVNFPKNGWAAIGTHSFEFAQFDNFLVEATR
In short: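 Fluorescence readout: HMU-β-gal cleavage by mutant GALC (0.1 mM final, citrate/phosphate pH 5.2 with 1 mg/mL taurocholate), stopped with carbonate/bicarbonate plus Triton X-100. Cells: murine Twitcher 145M-Twi expressing human G270D GALC; qHTS for activators.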
Also: 0% is about no effect; nearly all actives have a fitted effect of over 65% in size.

activation, inactive:
Cc1cccc(C)c1NC(=O)CN(CC(=O)O)CC(=O)O -12.2%
COc1ccc(CNC(=O)CCc2nc3cccnc3n2Cc2ccc(OC)cc2)cc1 -7.22%
O=C(Cn1cc(S(=O)(=O)Cc2cccc(Cl)c2)c2ccccc21)Nc1ccc(F)c(Cl)c1 -5.07%
CCCCOc1ccc(Cn2c(=O)oc3ccccc32)cc1 -17%
O=C(NCc1cccc(Cl)c1)c1oc(=O)c2ccccc2c1-c1ccccc1 -3.19%
Cc1nn(CCCC(=O)NCCc2ccc(Cl)cc2)c(=O)c2nn(-c3ccccc3)c(C)c12 -10.7%
COc1ccccc1CNS(=O)(=O)c1cc(-c2cc(C)no2)ccc1C -11%
CCOc1ccc(OCC(=O)NCCS(=O)(=O)N2CCN(c3ccc(OC)cc3)CC2)cc1 -19.8%
COC(=O)c1ccc(NC(=O)c2nn(C)c3c2COc2ccccc2-3)cc1 2.64%
Cc1ccc(NC(=O)Cn2c(=O)n(CCc3ccccc3)c(=O)c3sc4ccccc4c32)cc1C 16.7%
CCN(CC)CCOC(=O)c1ccc(N)cc1 -5.2%
COc1ccc(C2CC(=O)c3cc(-c4nc(-c5cccc([N+](=O)[O-])c5)cs4)c(=O)n(-c4ccccc4C)c3C2)cc1 (configuration not stated) 1.09%
CCn1c(=O)c(C(=O)Nc2cc(OC)c(OC)c(OC)c2)nc2ccccc21 -6.64%
O=C(NCc1ccccc1F)c1cccc(NC(=O)N2CCSc3ncccc32)c1 -15.4%
Cc1ccc(-c2cc(NC(=O)COc3c(C)cc(C)cc3C)on2)cc1 -12%
COc1ccc(Cl)cc1NC(=O)c1c(NCc2cccs2)sc2c1CCC(C)C2 (configuration not stated) -9.84%
CCOc1ccccc1NC(=O)CSc1nc(-c2cccs2)cc(C(F)(F)F)n1 -7.73%
Cc1[nH]c2ccccc2c1SCCNC(=O)c1ccc(F)cc1 -9.82%
CC(C)c1ccc(NC(=O)CSC2=Nc3ccccc3C3=NC(CC(=O)NCCc4ccccc4)C(=O)N23)cc1 (configuration not stated) -10.5%
COc1cccc(CNC(=O)C2CCN(c3ncnc4c3nc3n4CCCCC3)CC2)c1 -0.124%
O=C(Nc1cc(-c2nc3ccccc3o2)ccc1Cl)c1cc([N+](=O)[O-])ccc1N1CCOCC1 2.99%
Cc1cc(-c2ccc(C)c(S(=O)(=O)NCCc3ccccc3)c2)on1 -12.1%
Cc1ccc(NC(=O)CSc2nc(=O)n(CCN3CCOCC3)c3c2CCC3)cc1Cl -26.8%
CCC(=O)N1c2ccccc2CC1C(=O)NCCN1CCN(c2ccccc2F)CC1 (configuration not stated) -11.2%
Cc1ccc(Nc2c(-c3cccc(Cl)c3)nc3cccc(C)n23)cc1 -22.1%
CCCc1noc(-c2ccc(NCc3ccccc3OC)c([N+](=O)[O-])c2)n1 -15.8%
CC(C)(C)OC(=O)N1CCC(c2c(C(=O)NCc3ccccn3)cnn2-c2ccccc2Cl)CC1 0.0237%
Cc1ccc(C)c(N2CCN(S(=O)(=O)c3ccc(C4CCCCC4)cc3)CC2)c1 -12.7%
Cn1c(=O)nc2n(-c3ccc(Br)cc3)c3cccc(Cl)c3cc-2c1=O -10.7%
Cc1cccc(Cn2c(SCc3ccc(C(=O)NCc4cccs4)cc3)nc3ccncc32)c1 -6.53%
CN(C)C1(CNC(=O)COc2cccc(Cl)c2)CCCCC1 -4.23%
Cc1ccccc1C(=O)Nc1ccc2nc(SCC(=O)N(C)c3ccccc3)sc2c1 -10.2%
COc1ccc(N(C(=O)c2cc(OC)c(OC)c(OC)c2)S(=O)(=O)c2ccc(C)cc2)cc1 -16.3%
Cn1cc(-c2cc3n(n2)CCC(=O)N3CC(=O)NCc2ccccc2)c2ccccc21 -17.4%
O=c1cc(N2CCN(c3ccc(F)cc3)CC2)[nH]c(=O)n1-c1cccc(Br)c1 -4.41%
Cc1cccc(C(=O)NCc2cn3cccc(C)c3n2)c1 -10.3%
CC(C)c1ccc(Cc2cnc(NC(=O)c3ccc4c(c3)CC(c3ccccc3)OC4=O)s2)cc1 (configuration not stated) -8.11%
CCOC(=O)C1CCCN(C(=O)Cn2nc(C)n3c(cc4c(OC)cccc43)c2=O)C1 (configuration not stated) -14.5%
COc1cccc(CNC(=O)C2CCCN(S(=O)(=O)c3cn(C)cn3)C2)c1 (configuration not stated) -6.47%
Cc1ccc(-n2c(=O)c3cccnc3n2CC(=O)Nc2ccccc2C(F)(F)F)cc1C -20.3%
Cc1ccc(CNC(=O)C2CCN(S(=O)(=O)c3c(C)noc3/C=C/c3ccccc3F)CC2)o1 -12%
COc1ccc(S(=O)(=O)N(C(=O)c2ccncc2)c2ccc3oc(C)c(C(C)=O)c3c2)cc1 -23.5%
COc1ccc(-c2cn3c(n2)sc2cc(C(=O)NC4CCCCC4)ccc23)cc1 -17.2%
Cc1ccnc(NC(c2cc(C)ccc2O)c2ccc3cccnc3c2O)c1 (configuration not stated) -5.19%
COc1ccccc1OC(C)C(=O)N1CCN(CCc2ccccn2)CC1 (configuration not stated) -11.6%
CC[C@H](C)NC(=O)CCCc1nnc2n(CCC(C)C)c(=O)c3sccc3n12 -2.3%
Cc1ccc(C)c(NC(=O)C(NS(=O)(=O)c2ccc3c(c2)CCC(=O)N3)c2ccccc2)c1 (configuration not stated) -18%
COC(=O)c1cc(Cl)ccc1NS(=O)(=O)C(F)(F)F -10.5%
CCN(CC)c1ccc(C2C(C(N)=O)=C(C)Nc3nc(SCc4ccccc4)nn32)cc1 (configuration not stated) -1.68%
O=c1c2ccccc2nc2sc(Nc3cccc(C(F)(F)F)c3)nn12 -13.9%
Cc1ccc(N2CC(NC(=O)Cc3ccc(F)cc3)CC2=O)cc1C (configuration not stated) -16.8%
COc1ccccc1CNC(=O)c1cnn(-c2ccc(F)cc2F)c1C1CCN(C(=O)OC(C)(C)C)CC1 1.52%
COc1ccc(-c2noc(CCC(=O)Nc3ccccc3Cl)n2)cc1OC -5.87%
COCCN1CN=C(NS(=O)(=O)c2ccc(C)cc2)NC1 -15.2%
Cc1cccc(Cc2c(C)nc3nc(SCC(=O)NC4CCCCC4)nn3c2C)c1 -5.24%
Fc1ccc(-c2noc3ncnc(NCc4cccc(Cl)c4)c23)cc1 -7.61%
CSc1cccc(NS(=O)(=O)c2ccc3[nH]cc(C(=O)N4CCCCCC4)c(=O)c3c2)c1 -11.1%
CCOC(=O)c1nnc2c(-c3ccc(F)cc3)c(C)nn2c1N -14.8%
COc1ccc(/C=C\c2onc(C)c2S(=O)(=O)N2CCC(C(=O)Nc3ccc(C)c(F)c3)CC2)cc1 -9.38%
COc1ccc(/C=C(\C#N)c2nc(-c3cc4ccccc4oc3=O)cs2)cc1OC 11%
CC1CCN(S(=O)(=O)c2ccc3nc(N4CCN(c5ccccc5F)CC4)ccc3c2)CC1 -18.2%
COC(=O)c1cccnc1-n1c(=O)c2cccnc2n(CC(=O)Nc2cccc(C(F)(F)F)c2)c1=O -22.9%
CCOc1cc(C2CC(=O)Nc3c2c(C)nn3-c2nc(C)cc(C)n2)ccc1O (configuration not stated) -9.57%
Cc1ccc(-c2onc(C)c2C)cc1S(=O)(=O)NC1CCC(C)CC1 (configuration not stated) -3.57%
COc1ccc2c(c1)Cc1sc(NC(=O)c3cccc(Cl)c3)nc1-2 -7.02%
CC(C)c1ccc(-c2noc(SCC(=O)N3CCCCC3)n2)cc1 -7.86%
CCOc1ccccc1CNC(=O)c1ccc(Cn2c(=O)c3cccn3c3cccnc32)cc1 -2.59%
CCCN(CCC)CCCNC(=O)c1nn(C)c2c1CS(=O)(=O)c1ccccc1-2 -10.8%
CC(=O)Nc1nonc1-c1nnc(SCc2cccc(Br)c2)n1C -21.5%
COc1cc(C)ccc1OCCSc1nnc(-c2cccs2)o1 -4.5%
O=C(/C=C/c1ccccc1)Nc1cc(-c2nc3ccccc3o2)ccc1Cl -0.398%
FC(F)(F)c1cccc(N2CCN(Cc3nnc(-c4ccccc4)o3)CC2)c1 -7.7%
N#Cc1ccc(NC(=O)COCc2cc(-c3ccc(F)cc3)on2)cc1 -11.1%
COC(=O)c1cc2oc(C)cc2n1Cc1ccc(Cl)cc1 -22.7%
COc1cccc(NC(=O)CN2C(=O)C3(SCC(=O)N3c3cc(C)cc(C)c3)c3ccccc32)c1 (configuration not stated) -19.3%
Cc1ccc(NC(=O)C2CCN(S(=O)(=O)c3c(C)noc3C)CC2)cc1C -15.4%
Cc1ccc(CN2C(=O)N(c3ccc(C)c(Cl)c3)S(=O)(=O)c3ccccc32)cc1 -22.4%
CCOC(=O)CSc1nc2ccccc2n2c(C)nnc12 -8.51%
O=C(CSc1nccn1C1CCCC1)Nc1ccccc1 -8.04%
CCN(CC)C(=O)C1CCN(C(=O)c2cnn(-c3ccccc3)c2-n2cccc2)CC1 -11.3%
CCOc1ccc(CNC(=O)c2cnc(SC)nc2C)cc1 -15.4%
COC(=O)c1c(-c2cccs2)csc1NC(=O)COc1ccc(C(C)C)cc1 -6.35%
CCOC(=O)C1CCN(C(=O)c2nn(-c3ccc(C)cc3)c(=O)n(C)c2=O)CC1 -16.6%
CCc1ccc(CNC(=O)c2ccc(CS(=O)(=O)Cc3ccccc3C)o2)cc1 -20.6%
O=C(Nc1ccc(Cl)cc1C(F)(F)F)c1cc(S(=O)(=O)NCc2ccccc2)ccc1F -8.37%
Cc1ccccc1OCC(=O)Nc1nnc(S(=O)(=O)N(C)c2ccccc2)s1 -18.6%
COc1ccccc1N1CCN(C(=O)c2cc3c(=O)n(Cc4cccnc4)ccc3nc2C)CC1 -10.8%
O=C(Cn1c(=O)n(-c2ccccc2)c(=O)c2c3c(sc21)CCCC3)Nc1ccc(F)cc1 -8.52%
CCC1Oc2ccccc2N(CC(=O)NCc2ccc(C)cc2)C1=O (configuration not stated) -6.91%
Cc1ccc(Cl)cc1N1CCN(C(=O)c2cn(C)c3ccc(S(=O)(=O)N4CCCC4)cc3c2=O)CC1 27.5%
CCOc1ccc(-n2ccnc2SCC(=O)Nc2ccc(OC)cc2OC)cc1 -16.5%
CC1=C(C(=O)OC2CCCC2)C(c2cccc(Cl)c2Cl)CC(=O)N1 (configuration not stated) -13.3%
CCn1c2c(c(=O)n3ncc(C(=O)Nc4ccc(F)c(Cl)c4)c13)CN(Cc1ccc(OC)cc1)CC2 -28.6%
CC(=O)c1ccc(NC(=O)COc2ccccc2-c2nc(C)no2)cc1 2.13%
CCOc1ccc(C(=O)OCc2cc(=O)n3nc(C(C)C)sc3n2)cc1 -14.7%
CC(C)CC(=O)N(Cc1ccccc1)S(=O)(=O)c1ccc2c(c1)oc(=O)n2C -9.64%
CN(C)[C@@H]1C(=O)C(C(=O)NCN2CCCC2)=C(O)[C@@]2(O)C(=O)C3=C(O)c4c(O)cccc4[C@@](C)(O)C3C[C@@H]12 (some centres not stated) -6.78%
